Test results published in PubChem BioAssay AID652106 (National Center for Advancing Translational Sciences (NCATS), 2013).
Among all 370,000 compounds or so, about 500 (0.14%) were called active. Inconclusive results, whose numbers are uncertain, are shown with a selection of clear calls. The call rests on the fitted dose curve; in most records, active means well fitted activation curve with a large enough effect; inconclusive means small, poorly fitted or top-dose-only effect; inactive means no such curve, though single readings can be large or run the other way. Potencies of inconclusive entries are left out as doubtful fits.

Test: qHTS of alpha-syn Inhibitors; further: nearly all actives have a fitted effect of over 65% in size; on growth rescue (activation): % of control where 0% means no effect
Conditions: Yeast expressing alpha-synuclein, BacTiter-Glo, 24 h; Potency: growth rescue unless noted; growth rescue (activation): at 46.1 µM (top of the series) unless noted
Summary of the method: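 Rescue of yeast growth: cells expressing toxic alpha-synuclein, induced in galactose at OD600 0.02, incubated with compound 24 h at 30 C. ATP luminescence quantified growth; inhibitors of toxicity appear as activators.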
Potency means the concentration at half of the fitted maximal effect; tags describe the fitted curve by direction and shape.

Compound	Potency	growth rescue (activation)
COc1ccc(-c2cncnc2-c2ccc(OC)cc2O)cc1	inactive	–
Cc1cc(C)c(NC(=O)C2CCCO2)c(C)c1NC(=O)C1CCCO1 (centres undefined)	inactive	–
CCCC(=O)NC(c1cccs1)c1cc(Cl)c2cccnc2c1O (centres undefined)	inconclusive [activator, single point]	–
COc1ccccc1Cc1c(-c2ccco2)nc2ccc(Cl)cn12	inactive	–
C=CCOC(=O)C1=C[C@@H](c2ccccc2)C[C@@H](OCc2ccc(CO)cc2)O1	inconclusive [activator, single point]	–
Cc1cc(C)n2nc(SCc3nnc(SCc4ccccc4C)s3)nc2n1	inconclusive [activator, single point]	–
O=C(NC(=S)NCc1ccccc1)c1cccnc1	inactive	–
Cc1[nH]c2ccccc2c1-c1csc(N)n1	inactive	–
O=C1CC(N2CCCCCC2)C(=O)N1c1ccc2c(c1)OCO2 (centres undefined)	–	inconclusive: -80.2% [activator]
O=S(=O)(Nc1ccc(-c2ccc(N3CCOCC3)nn2)cc1)c1cc(Cl)ccc1Cl	inconclusive [activator, single point]	–
CCCCCNC(=O)C(C1CC1)n1c(=O)c(-c2cc3ccccc3[nH]2)nc2ccccc21 (centres undefined)	inconclusive [activator, single point]	–
COc1cc(NC(=O)c2ccccc2)cc(OC)c1	active: 3.55 µM	–
O=[N+]([O-])c1ccccc1S(=O)(=O)N1CCN(c2ccc(F)cc2)CC1	inconclusive [activator, single point]	–
COc1ccc(OC)c(CNC(=O)Nc2cn(CC(C)C)c(=O)c3ccccc23)c1	inconclusive [activator, single point]	–
COc1ccccc1C(=O)NCC[N+](C)(C)C	inconclusive [activator, single point]	–
CC1CCN(S(=O)(=O)c2ccc(C(=O)Nc3nnc(C4CC4)o3)cc2)CC1	active: 17.8 µM	–
Cc1csc(NC(=O)c2cccc(Cn3nc(C)c(Br)c3C)c2)n1	inconclusive [activator, single point]	–
O=C(Nc1nc(-c2ccc(F)c(F)c2)cs1)Nc1ccc(F)cc1F	inconclusive [activator, single point]	–
CC(C#N)Sc1ccc(S(=O)(=O)N2CCCC2)cn1 (centres undefined)	inconclusive [activator, single point]	–
Cc1cc(C)n(-c2nc3ccccc3c(=O)n2OCCOc2ccccc2)n1	inconclusive [activator, single point]	–
CCN(CC)S(=O)(=O)c1cccc(NC(=O)c2cc3ccccc3o2)c1	inactive	–
Cc1ccc(C(=O)Nc2nc(-c3ccccn3)cs2)cc1S(=O)(=O)N1CCOCC1	active: 12.6 µM	–

Compound	Potency	growth rescue (activation)
COc1ccc2c(c1)C(=O)N(c1ccc(C)cc1C)C(=O)C2(C)C	inconclusive [activator, single point]	–
CC1C(=O)N(Cc2cn(Cc3ccco3)nn2)CCS(=O)(=O)N1Cc1ccc(-c2ccc(Cl)c(Cl)c2)cc1 (centres undefined)	inconclusive [activator, single point]	–
CC1(C)CC2CC(C)(CN2S(=O)(=O)c2cccc(C(N)=O)c2)C1 (centres undefined)	inconclusive [activator, single point]	–
C#CCOCCOCCOCCNc1nc(N2CCN(C(=O)[C@H](CCC(=O)O)n3cc(C(N)CC(C)C)nn3)CC2)nc(N2CCN(C(=O)[C@H](Cc3cc4ccccc4[nH]3)n3cc(C(N)[C@H](C)CC)nn3)CC2)n1 (some centres undefined)	inconclusive [activator, single point]	–
Nc1nc(SCc2ccc(Cl)cc2)ns1	inactive	–
CC(C)CCOc1ccc(CC(=O)NO)cc1	inconclusive [activator, single point]	–
COC(=O)c1ccc(Cl)c(NC(=O)CN(c2ccc3c(c2)OCO3)S(C)(=O)=O)c1	inconclusive [activator, single point]	–
Cc1c(NS(=O)(=O)c2ccc3c(c2)OCCO3)cccc1-c1nc2cccnc2s1	inconclusive [activator, single point]	–
O=[N+]([O-])c1cc(/C=N/N/C(=N/c2ccccn2)c2ccccn2)ccc1O	inconclusive [activator, single point]	–
O=c1c2c(nc3cc(-c4ccc(F)cc4)[nH]n13)CCC2	inactive	–
CCN(c1ccccc1)S(=O)(=O)c1cc(C(=O)OC2CCOC2=O)ccc1C (centres undefined)	inconclusive [activator, partial curve]	–
COc1ccc(NC(=O)CN(C2CCCCC2)S(C)(=O)=O)cc1OC	inconclusive [activator, single point]	–
Cc1ccc(C)c(-c2nnc(NC(=O)c3ccco3)o2)c1	inconclusive [activator, single point]	–
O=C(Cn1c(=O)n(Cc2ccc3c(c2)OCO3)c(=O)c2ccccc21)N1CCCc2ccccc21	inconclusive [activator, single point]	–
O=S(=O)(Oc1ccccc1)c1ccc(Cl)c(Cl)c1	inactive	–
O=C(Nc1ccc2c(c1)OCCO2)c1cc2sccc2n1Cc1ccccc1	inconclusive [activator, single point]	–
CNc1nc(-c2ccccc2)c(-c2ccccc2)s1	inactive	–
O=C(Nc1nnc(-c2cccs2)o1)c1cccc(C(F)(F)F)c1	active: 3.16 µM	–
O=C(O)CCC(=O)/C=C/c1ccccc1	inconclusive [activator, single point]	–
Nc1ccc(OCCCc2c(N)nc(N)nc2N)cc1	inconclusive [activator, single point]	–
CCOC(CCn1c(SCc2ccc([N+](=O)[O-])cc2)nc2ccccc2c1=O)OCC	inconclusive [activator, single point]	–
O=C(Nc1nc(-c2ccccn2)cs1)c1cc2ccccc2o1	–	inconclusive: -73.6% [activator]
